Experimental data as given in the antibiotic and cytotoxicity screens of Wong et al. (2023).
This is one part of the list.

System: S. aureus RN4220
Assay: growth inhibition call (relative growth <= 0.2)
Settings: 50 µM

Growth inhibition call, inactive:
C[C@@H]1CN([C@H](C)CO)C(=O)Cc2cc(NC(=O)CCC(F)(F)F)ccc2O[C@H]1CN(C)C(=O)Nc1ccc(C(F)(F)F)cc1
CNC(=O)C[C@H]1CC[C@@H]2[C@H](COc3ccc(NC(=O)c4ccc(C(F)(F)F)cc4)cc3C(=O)N2C)O1
CCS(=O)(=O)N1C[C@]2(CCN(CC2)C(=O)c2cccnc2)c2c(n(c3cc(ccc23)OC)C)[C@@H]1CO
Cn1cnc(S(=O)(=O)N2C[C@H](O)COC[C@@H]3O[C@H](CC(=O)NC4Cc5ccccc5C4)CC[C@H]32)c1
C[C@@H]1CN([C@H](C)CO)C(=O)c2cccc(NS(=O)(=O)c3ccc(Cl)cc3)c2O[C@H]1CN(C)Cc1ccc(Cl)c(Cl)c1
Cc1noc(C)c1NC(=O)N(C)C[C@@H]1Oc2ccc(NC(=O)CCCN(C)C)cc2C(=O)N([C@@H](C)CO)C[C@@H]1C
CC(C)NC(=O)Nc1cccc2c1O[C@H](CN(C)S(=O)(=O)c1ccc(Cl)cc1)[C@H](C)CN([C@@H](C)CO)C2=O
COc1ccc(CN(C)C[C@H]2Oc3ccc(NC(=O)Nc4cccc5ccccc45)cc3C(=O)N([C@H](C)CO)C[C@H]2C)cc1
CO[C@@H]1CN(C)C(=O)c2ccc(NC(=O)c3ccccc3)cc2OC[C@H](C)N(C(=O)CN(C)C)C[C@@H]1C
Nc1cc(F)ccc1CO
Cc1ccc(S(=O)(=O)Nc2cccc3c2O[C@@H](CN(C)C(=O)Nc2cccc4ccccc24)[C@@H](C)CN([C@@H](C)CO)C3=O)cc1
O=c1[nH]c(=O)n(C2CC(O)C(CO)O2)cc1C(F)(F)F (configuration not stated)
C[C@@H]1CCCCO[C@@H](CN(C)Cc2ccc(C(F)(F)F)cc2)[C@H](C)CN([C@H](C)CO)C(=O)c2cc(NC(=O)c3ccccc3)ccc2O1
C[C@@H]1CCCCO[C@H](CN(C)C(=O)Cc2ccccc2)[C@@H](C)CN([C@H](C)CO)C(=O)c2cc(NS(=O)(=O)c3ccc(F)cc3)ccc2O1
C[C@@H]1CN([C@@H](C)CO)C(=O)Cc2cc(NC(=O)Nc3ccc4c(c3)OCO4)ccc2O[C@@H]1CN(C)Cc1ccc(Cl)c(Cl)c1
C[C@@H]1O[C@@H](Oc2c(-c3cc(O)c(O)c(O)c3)oc3cc(O)cc(O)c3c2=O)[C@H](O)[C@H](O)[C@H]1O
O=C(CN1CCOCC1)N[C@@H]1CC[C@H](CCn2cc(C3CCCC3)nn2)O[C@@H]1CO
